Like-named read-outs stand apart in the source and are kept apart here. Not every detail of the peptide structures is certain; ends, links or a residue may be inferred. For part of these data: At least one compound was matched to its structure with a doubt left. Some results were stated once for a whole list of compounds, not compound by compound. Where a SMILES comes first, the peptide text is derived from it. Where no end group is shown, it is not given here.
What was measured:
[1] = target: T1, ClpXP (Escherichia coli, UniProt P0A6G7+P0A6H1); type: biochemical, E. coli; details: for Ki: purified peptides and E. coli proteins, GFP-tag
Protocol: (§1) In vitro proteolysis assays: Proteolysis of GFP-tag was performed using a continuous fluorescence assay essentially as previously described (Levchenko et al. 2000, Science 289: 2354-2356). Briefly, loss of GFP fluorescence was monitored at 507 nm after excitation at 395 nm at 30° C. using a Hitachi F-2000 Fluorescence Spectrophotometer in buffer R (25 mM HEPES-KOH (pH 7.6), 5 mM MgCl2, 50 mM KCl, 0.032% NP-40, 10% glycerol, and an ATP regeneration system containing 4 mM ATP (pH 7), 16 mM creatine phosphate and 0.32 mg/ml creatine kinase). Typically, reactions contained […], 0.3 μM ClpP14, and equimolar concentrations (0.2 μM-2.0 μM) GFP-tag and SspB. Degradation of GFP-tag protein was confirmed by SDS-PAGE assays. To examine inhibition of GFP-tag proteolysis, peptides were incubated with ClpXP in reaction buffer for 5 min prior to the addition of GFP-tag. Plots of fluorescence versus time were fit with a single exponential function to determine the initial rate of proteolysis. Kinetic parameters were estimated using Eadie-Hofstee plots.
Proteolysis of GFP-tag in the presence of ClpXP and SspB was monitored by loss of GFP fluorescence in a continuous fluorometric assay. In the absence of cyclic peptide, GFP-tag was degraded with kinetic parameters kcat=[…], KM=0.74±0.04 μM. […] Likewise, no degradation was observed when ClpX or ClpP were omitted from the reaction.

[2] = target: T1, ClpXP; assay: ClpXP degradation of GFP-tag in the presence of SspB, continuous fluorimetric assay (Examples 1-2); type: biochemical, E. coli; details: for Ki: GFP-tag degradation by ClpXP
Protocol: (§2) ClpXP Proteolysis: PD buffer contained 25 mM HEPES-KOH (pH 7.6), 5 mM KCl, 5 mM MgCl2, 0.032% NP-40, 5 mM ATP, and 10% glycerol. The ATP regenerating system consisted of 8 mM creatine phosphate and 0.16 mg/ml creatine kinase. Inhibition experiments were performed using a Hitachi F-2000 Fluorescence Spectrophotometer. The rate of GFP-ssrA degradation was monitored at 30° C. for 5 minutes by the loss of fluorescence (excitation 488 nm; emission 507 nm). Competition experiments with increasing concentrations of peptide were performed using GFP-ssrA (0.2 μM), ClpX6 (0.3 ArM), ClpP14 (0.8 μM), and SspB2 (0.3 μM) in PD buffer plus 200 mM KCl and ATP regenerating system. Curve fitting for the competitive inhibition assays were performed using the Scientist program (MicroMath Scientific Software, Inc.).
Characterization of ClpXP inhibitors in vitro: Two of the selected cyclic peptides were synthesized in vitro to examine their effects on enzymatic assays. Peptides with the sequence SGWRVQGPL (SEQ ID NO: 1) and SGSKGVLPL (SEQ ID NO: 2) were chemically synthesized in the linear form, circularized, and purified by HPLC. The effects of these peptides on the activity of purified ClpXP were determined in vitro using a continuous fluorimetric assay. GFP-tag, SspB, ClpX and ClpP were each purified from over-expressing strains of E. coli, and degradation of GFP-tag was monitored by loss of fluorescence. In reactions containing all components, GFP-tag was degraded with kinetic parameters kcat=1.79±0.08 min−1, KM=0.74±0.04, similar to the previously published values of 1.44 min^−1 and 0.96 μM. […] For both cyclic peptides, inhibition of ClpXP was reversible, as no inhibition was observed when ClpXP was incubated with peptide at concentrations above the Kr, and dialyzed to remove unbound peptide before addition of enzyme to the reaction. The linear versions of SGSKGVLPL (SEQ ID NO: 2) and SGWRVQGPL (SEQ ID NO: 1) had Kb, values >1 mM (Table 4), so the cyclic architecture is likely to be important for inhibition.

[3] = tested on: C. crescentus; type: cell-based, Caulobacter crescentus; details: 99.9% colony reduction, listed as linear XB
Protocol: Antibacterial activity assays: To measure the effects of peptides on bacterial growth, cultures of C. crescentus were diluted to OD600=0.001, peptide was added at various concentrations, the cultures were incubated at 30° C. for 14 h, and the MIC was determined as the lowest concentration of peptide that prevented growth. To determine the MBC, each culture was diluted 1:100 in PYE and 10 μl of the diluted culture was spread onto PYE agar plates, incubated at 30° C. overnight, and the number of colonies on each plate was counted. The MBC was assigned as the concentration of peptide that reduced the number of colonies by 99.9% compared to cultures with no inhibitor.

[4] = target: T1, ClpXP; assay: ClpXP degradation of λO protein (Example 1); type: biochemical, E. coli; details: concentrations near or 10-fold above the KI for GFP-tag
Protocol: The differing effects of SspB on inhibition indicate that inhibitors for two different steps in the ClpXP degradation pathway were obtained from the genetic screen. To confirm the different specificities of these two inhibitors, the effects on ClpXP degradation of a substrate unrelated to tmRNA tagged proteins was assayed. Because ClpXP can recognize at least 5 different protein sequences as substrate determinants, it has been proposed that there are several substrate binding sites on the protease. Inhibitors that block one site of interaction are expected to affect degradation of only the substrates that bind at that site. Conversely, inhibitors that block catalysis or obstruct a binding site required by all substrates should affect degradation of any ClpXP substrate.

[5] = target: T1, ClpXP; assay: In vitro proteolysis of GFP-tag by ClpXP without SspB (Example 3); type: biochemical, E. coli; details: no SspB
Protocol: as §1
In the in vitro and in vivo proteolysis reactions above, the proteolytic adaptor SspB binds GFP-tag and tethers it to ClpXP (Levchenko et al. 2000, Science 289: 2354-2356). In principle, IXP1 could act on the GFP-tag.cndot.ClpXP interaction or the SspB.cndot.ClpXP interaction. […]

[6] = target: T1, ClpXP; assay: Proteolysis of λO protein by ClpXP, SDS-PAGE (Example 3); type: biochemical, E. coli
[7] = target: T1, ClpXP; assay: ClpXP degradation of GFP-tag in the absence of SspB (Examples 1-2); type: biochemical, E. coli
Protocol: as §2
A priori, there are several steps in the degradation pathway that could be inhibited by the selected cyclic peptides: binding of the substrate-SspB complex to ClpXP, ATPase activity of ClpX, and hydrolysis of the peptide bond by ClpP. Molecules that block the binding of substrate to SspB should not be inhibitors of proteolysis by ClpXP, because ClpXP will degrade tmRNA-tagged substrates in the absence of SspB. To determine if the inhibitors act through SspB, the kinetic assays were repeated in the absence of this proteolytic adaptor.

[8] = tested on: GFP-tag degradation by ClpXP; assay: In vivo screen: GFP-tag reporter fluorescence in E. coli producing the cyclic peptide from a SICLOPPS plasmid, epifluorescence microscopy (Example 3); type: cell-based; details: for % fluorescent cells: cells with fluorescence at least 0.5 times that of ΔclpX cells producing GFP-tag
Protocol: Screen for inhibitors of the tmRNA pathway: E. coli BW7786 cells containing the GFP-tag reporter and the SICLOPPS library were grown in LB broth with 30 μg/ml chloramphenicol, 100 μg/ml ampicillin, and 0.0002% arabinose at 37° C. to OD600=0.3. IPTG was added to a final concentration of 1 mM, and the culture was grown for 3 hours. Cells were sorted by fluorescence activated cell sorting (FACS) using a Beckman Coulter Elite cell sorter with Autoclone to isolate cells with GFP fluorescence, and selected cells were deposited on agar plates for clonal growth. Cells from each colony were grown in liquid culture as described above and examined by epifluorescence microscopy. The fluorescence intensity and the number of cells with fluorescence above background were scored using ImagePro software (MediaCybernetics). SICLOPPS plasmid DNA was prepared from selected clones and the region encoding the cyclic peptide was sequenced. Peptide sequences were obtained from conceptual translation of the DNA sequences.
Approximately 0.014% of the population had fluorescence over the background level, and 96 of these cells were isolated for clonal growth and characterization. To eliminate any clones that resulted from sorting errors or spurious accumulation of GFP, cells from each colony were cultured and examined by epifluorescence microscopy.

[9] = tested on: C. crescentus; type: cell-based, Caulobacter crescentus
Protocol: Antibacterial activity: The peptides recovered from the selection were tested for antibacterial activity by incubating a 1:1,000 diluted saturated culture with the peptide overnight at room temperature. For each peptide a series of concentrations were tested. The mix was then plated, and the colonies were counted after a period incubation at 30° for C. crescentus or 37° C. for B. subtilis. For C. crescentus, PYE liquid media were incubated overnight at 30° C. at 250 rpm, and PYE plates were incubated for 3 days at 30° C. For B. subtilis, LB liquid media and plates were incubated overnight at 37° C. […]
Antibacterial activity of cyclic peptide inhibitors: Because ClpXP is essential in C. crescentus, we examined whether the inhibitory peptides have any effect when added exogenously to growing cultures. […] ClpXP is not essential in Bacillus subtilis, but mutants lacking ClpXP activity have growth and sporulation defects. […] No killing of E. coli or the related γ-proteobacteria Shigella flexneri and Vibrio cholera was observed. It remains to be determined if the selected cyclic peptides are effective against pathogenic bacterial that require the tmRNA-ClpXP pathway.

T1 sequence (P0A6G7 15-207): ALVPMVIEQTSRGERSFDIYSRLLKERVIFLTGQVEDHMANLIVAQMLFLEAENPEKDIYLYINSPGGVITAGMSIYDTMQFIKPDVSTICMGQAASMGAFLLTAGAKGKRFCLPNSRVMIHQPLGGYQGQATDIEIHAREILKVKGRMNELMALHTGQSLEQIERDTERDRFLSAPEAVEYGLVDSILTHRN
T1 sequence (P0A6H1 whole entry): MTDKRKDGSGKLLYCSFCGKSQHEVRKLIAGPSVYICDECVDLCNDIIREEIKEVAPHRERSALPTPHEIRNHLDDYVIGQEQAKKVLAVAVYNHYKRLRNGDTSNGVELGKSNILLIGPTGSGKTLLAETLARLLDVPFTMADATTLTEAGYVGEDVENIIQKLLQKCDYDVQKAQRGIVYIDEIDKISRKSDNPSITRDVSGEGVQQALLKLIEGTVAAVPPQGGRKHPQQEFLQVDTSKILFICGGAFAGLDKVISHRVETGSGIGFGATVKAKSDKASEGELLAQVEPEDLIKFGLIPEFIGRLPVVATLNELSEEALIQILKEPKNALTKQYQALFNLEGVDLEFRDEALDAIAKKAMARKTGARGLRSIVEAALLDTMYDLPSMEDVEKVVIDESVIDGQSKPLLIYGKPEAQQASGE

## SGWHRRGM [linear IXP2, SGWHRRGM]
[1]; SspB present, read-out: KI
  Ki: > 400 µM
[1]
  inhibition of ClpXP in vitro at concentrations up to 1 mM: little inhibition

## CRGGRPALRVVK [linXB, CRGGRPALRVVK, reference compound]
[2]; SspB present
  mode of inhibition of GFP-tag degradation: competitive inhibitor
[3]
  MBC: 146 ± 11 µM
[1]; SspB present
  mode of inhibition of GFP-tag degradation: competitive inhibitor
[4]
  effect on degradation of λO protein by ClpXP: did not inhibit
[5]
  effect on GFP-tag degradation by ClpXP in the absence of SspB: no effect
[6]
  inhibition of λO degradation by ClpXP: did not inhibit
[7]; no SspB
  inhibition of GFP-tag degradation by ClpXP in the absence of SspB: no effect
[7]; read-out: KI value No SspB, GFP-tag degradation by ClpXP
  Ki: > 1000 µM

## CSCC[C@@H]1NC(=O)CNC(=O)[C@H](CCCNC(=N)N)NC(=O)[C@H](CCCNC(=N)N)NC(=O)[C@H](Cc2c[nH]cn2)NC(=O)[C@H](Cc2c[nH]c3ccccc23)NC(=O)CNC(=O)[C@H](CO)NC1=O [IXP2, SGWHRRGM] (HELM PEPTIDE1{G.M.S.G.W.H.R.R}$PEPTIDE1,PEPTIDE1,1:R1-8:R2$$$V2.0)
[8]
  % fluorescent cells: < 40%

## CSCC[C@@H]1NC(=O)[C@H](Cc2c[nH]c3ccccc23)NC(=O)[C@H](CCCCN)NC(=O)[C@H](Cc2ccc(O)cc2)NC(=O)[C@@H]2CCCN2C(=O)[C@H](Cc2c[nH]c3ccccc23)NC(=O)CNC(=O)[C@H](CO)NC1=O [Con62, SGWPYKWM, reference compound] (HELM PEPTIDE1{G.W.P.Y.K.W.M.S}$PEPTIDE1,PEPTIDE1,1:R1-8:R2$$$V2.0)
[8]
  % fluorescent cells: 0%
[8]; compared with ΔclpX strain
  GFP-tag fluorescence / inhibition in vivo: no detectable inhibition
[9]
  effect on bacterial growth: no effect
[1]
  inhibition of ClpXP in vitro at concentrations up to 1 mM: no detectable inhibition

## CC(C)C[C@@H]1NC(=O)[C@H](C)NC(=O)[C@@H]2CCCN2C(=O)[C@H](CCCNC(=N)N)NC(=O)CNC(=O)CNC(=O)[C@H](CCCNC(=N)N)NC(=O)[C@H](CS)NC(=O)[C@H](CCCCN)NC(=O)[C@H](C(C)C)NC(=O)[C@H](C(C)C)NC(=O)[C@H](CCCNC(=N)N)NC1=O [cycXB, CRGGRPALRVVK] (HELM PEPTIDE1{A.L.R.V.V.K.C.R.G.G.R.P}$PEPTIDE1,PEPTIDE1,1:R1-12:R2$$$V2.0)
[2]; read-out: KI value +SspB, SspB present
  Ki: 8 ± 1 µM
[1]; SspB present
  Ki: 8 ± 1 µM

## SGWRVQGPL [linICP2, SGWRVQGPL]
[2]; SspB present, read-out: KI value +SspB
  Ki: > 1500 µM
[2]; read-out: Kb, values (KI) of linear versions
  Ki: > 1000 µM
[1]
  inhibition of ClpXP in vitro at concentrations up to 1 mM: little inhibition
[7]; GFP-tag degradation by ClpXP, no SspB, read-out: KI value No SspB
  Ki: > 1500 µM

From US10597735B2, “Antibacterial and plasmid elimination agents” (priority 2006, dated 2020)
